Assay results taken from PubChem BioAssay (NCI).
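How tested: cells in 96-well plates exposed to compound for 48 hours at five concentrations. The concentration for full growth arrest is given as TGI.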 The source holds more than one record for some entries. The list is limited to them. There may be further records. Values given together repeat one measurement (runs, samples, wells, individuals or studies). What stands in brackets tells the records apart. Letters hold for one entry only.

System: MDA-MB-468 breast
Experiment: growth of human tumour cells (NCI), 48 h

## CN(C)c1ccc(/C=C(\C#N)c2ccccc2)cc1
  TGI: > 100 µM [sample A, 1 test] and 73.3 µM [sample B, 1 test] and 1.48 µM [sample C, 1 test]
